Experimental data published in ChEMBL document CHEMBL4888484, “Replenishing the malaria drug discovery pipeline: Screening and hit evaluation of the MMV Hit Generation Library 1 (HGL1) against asexual blood stage Plasmodium falciparum ,using a nano luciferase reporter read-out” (2022).
“And” between values parts separate entries of the source, which are not always exact repeats. Equal values may be shown once. Screen size: about 150,000 compounds; about 540 (0.36%) showed an effect of 50% or more. The list shows a part of the results.

Test system: Plasmodium falciparum
Experiment: Primary screen in NF54 nanoGlo assay, in single point, at 2uM, 72h; a lower Z score goes with more inhibition
Type: functional, Erythrocyte
Settings: timepoint 72 hour

Cc1cccc(N2C(=O)[C@@H]3Cc4c([nH]c5ccccc45)C(c4cccc(Cl)c4)N3C2=O)c1 (some centres undefined)
% Inhibition: -13%
Z score: 1.62

CN1CCO[C@H](C(=O)N2CCC3(CC2)OCCc2ccccc23)C1
% Inhibition: 2%
Z score: -0.24

O=C(NCc1nccs1)c1nn(Cc2ccccc2)c2c1CN(C(=O)[C@@H]1CCCO1)CC2
% Inhibition: -19%
Z score: 2.44

c1ccc(C2(c3nc(C4CCCCC4)no3)CCOCC2)cc1
% Inhibition: -7%
Z score: 1.11

Cn1c(=O)n([C@H]2CCCN(Cc3ccco3)C2)c2ncncc21
% Inhibition: -18%
Z score: 1.79

CC(C)(C)c1ccc(CCC(=O)N[C@@]2(C)CCOC2)cc1
% Inhibition: 6%
Z score: -0.68

O=C(NC1(CN2CCOCC2)CCCC1)c1cccc(-c2ncccc2O)c1
% Inhibition: 1%
Z score: -0.11

O=C(CC1CC2CCC1C2)N1CCC(c2ncc[nH]2)C1 (centres undefined)
% Inhibition: -4%
Z score: 0.55

CC[C@@H]1Oc2ccc(NC(=O)c3ccc4c(c3)OCO4)cc2CN(Cc2ccccc2)C1=O
% Inhibition: 1%
Z score: -0.07

Cc1ccc(NC(=O)N(C)C)c(Cl)c1
% Inhibition: 1%
Z score: -0.08

O=S(=O)(Nc1cccc2c1CCCC2)c1ccc(-c2cnc(C3CC3)o2)cc1
% Inhibition: -5%
Z score: 0.93

Cc1cc(C)nc(CN(C)Cc2c(C)nc3ccccn23)c1
% Inhibition: 2%
Z score: -0.36

O=C(O)CN1CCC[C@H](c2nc(-c3ccccc3)c[nH]2)C1
% Inhibition: -8%
Z score: 0.94

CCn1cc(C(=O)NC[C@H]2CCCN(Cc3ccoc3)C2)cn1
% Inhibition: -19%
Z score: 2.93

CC1CC(c2ccccc2)CN1C(=O)c1ccc2nccn2c1 (centres undefined)
% Inhibition: -8%
Z score: 1.13

O=C1Nc2ccc(S(=O)(=O)N3CCCC3)c3ccc(S(=O)(=O)N4CCCC4)c1c23
% Inhibition: 5%
Z score: -0.66

O=C(C1CCCC1)N1C[C@@H]2CN(CCc3cccc(F)c3)C[C@]2(C(=O)O)C1
% Inhibition: -4%
Z score: 0.71

CC(=O)N1CCN(c2nc(Cc3ccc(C)cc3)nc3c2c(C)nn3-c2ccccc2)CC1
% Inhibition: 7%
Z score: -0.78

O=C(N[C@@H]1C[C@@H]2CCCC[C@@H]21)c1nccc2occc12
% Inhibition: -4%
Z score: 0.68

Cn1ccnc1-c1c(-c2ccccc2)ncn1C(CO)CO
% Inhibition: -2%
Z score: 0.23

CCc1nc(CNC(=O)N2C3CCC2CC(CCF)C3)co1 (centres undefined)
% Inhibition: -9%
Z score: 1.69

CCCNC(=O)CCc1c(C)n(C)c2nc(-c3ccc(Cl)cc3)nn2c1=O
% Inhibition: -15%
Z score: 1.5

Cc1ccc(S(=O)(=O)NCc2ccc(CNS(=O)(=O)c3ccc(C)cc3)cc2)cc1
% Inhibition: -2%
Z score: 0.2

Cc1csc(-c2ccc(N3CCN(C(=O)c4cc(F)ccc4Cl)CC3)nc2)n1
% Inhibition: -28%
Z score: 4.8

CC(=O)N1CC[C@H](Nc2nc(C3CC3)ns2)C1
% Inhibition: -6%
Z score: 0.62

CC(C)(C)c1cc2c(NCC3=CCOCC3)nccn2n1
% Inhibition: 43%
Z score: -5.48

Cc1ccc2[nH]c3c(c2c1)CCOc1ccccc1-3
% Inhibition: 9%
Z score: -1.24

Cn1cc(NC(=O)CCC2CCCCCC2)c(C(N)=O)n1
% Inhibition: 3%
Z score: -0.6

O=C(CN1CCCN(c2ccnc(Cc3ccc(F)cc3)n2)CC1)N1CCCC1
% Inhibition: -9%
Z score: 1.42

O=C(O)[C@H](Cc1ccccc1)Nc1ncccn1
% Inhibition: -18%
Z score: 3.46

COc1ccc(Br)c([C@H](CO)N(C)Cc2cc3n(n2)CCCC3)c1
% Inhibition: -3%
Z score: 0.4

CCOC(=O)CN1CCN(c2ccc(-c3ccccc3)cc2)C(=O)[C@@H]1C
% Inhibition: -13%
Z score: 2.09

CCCn1ccnc1CN1C[C@H]2CC[C@@H](C1)N(CC=C(C)C)C2
% Inhibition: -28%
Z score: 2.96

CC(C)n1cc(NC(=O)NCCC[C@H]2CCCCO2)cn1
% Inhibition: -3%
Z score: 0.34

CN(C(=O)c1ccc(Br)cc1-n1cncn1)C1CCC1
% Inhibition: -3%
Z score: 0.36

CN(C(=O)NC[C@H]1CC2(CCOCC2)CO1)C1CC1
% Inhibition: -12%
Z score: 1.88

Cc1c([C@H]2NC(=O)c3ccccc3N2C)cc(C#N)n1C
% Inhibition: -1%
Z score: 0.05

Cc1cc(NC(=O)N2CCC[C@H](C3CCOCC3)C2)c(N(C)C)nn1
% Inhibition: -2%
Z score: 0.28

NCc1n[nH]c(=O)n1-c1ccc2c(c1)OCO2
% Inhibition: -8%
Z score: 1.16

COc1ccc(CCNc2nccn(-c3ccc4c(c3)OCCO4)c2=O)cc1OC
% Inhibition: -12%
Z score: 1.35

Cc1nn(-c2ccccc2)c2c1[C@@H](c1ccc(C(F)(F)F)cc1)N(c1ccccc1)C(=O)N2
% Inhibition: 33%
Z score: -4.23

O=S(=O)(Nc1ccccc1-c1nc2ccccc2nc1O)c1cccc(F)c1
% Inhibition (2 µM): -9% and 2%

O=C(c1cn[nH]c1)N(CC1CCN(C2Cc3ccccc3C2)CC1)C[C@H]1CCCO1
% Inhibition: -3%
Z score: 0.36

CCn1nccc1-c1nc(-c2ncccn2)no1
% Inhibition: -9%
Z score: 1.19

O=C1CCCc2[nH]c(=O)c(C(=O)N3CCCc4ccccc43)cc21
% Inhibition: -5%
Z score: 0.9

Cc1[nH]ncc1C(=O)N1CCCN(Cc2ccc(C(F)(F)F)cc2)CC1
% Inhibition: -1%
Z score: 0.16

C/C=C/CC(=O)N1CCC[C@@]2(CCC(=O)N(Cc3ccncc3)C2)C1
% Inhibition: -21%
Z score: 2.4

O=C(N[C@@]1(C(F)(F)F)NC(c2ccccc2)=NC1=O)c1ccc(Cl)cc1Cl
% Inhibition: -10%
Z score: 1.42

COCc1nc(C(=O)Nc2cccnc2C2CC2)cs1
% Inhibition: -15%
Z score: 2

Cc1noc2ncnc(N3CCCN(CCCc4ccccc4)CC3)c12
% Inhibition: -1%
Z score: 0.13

COC(=O)Nc1cccc(OS(=O)(=O)C[C@H](CC(C)C)OC)c1
% Inhibition: 3%
Z score: -0.62

Cc1ccc(-c2coc(-c3cccc(NS(=O)(=O)c4ccc(Br)cc4C)c3)n2)cc1
% Inhibition: 2%
Z score: -0.42

O=C(c1cccc2c1CCOC2)N1CCCc2c1nc[nH]c2=O
% Inhibition: -9%
Z score: 1.22

FC(F)(F)C1CN(c2ncnc3[nH]ccc23)C1
% Inhibition: -5%
Z score: 0.93

O=C(Nc1cccc(F)c1)C(F)(F)[C@@]1(F)OC(F)(F)C(F)(F)C1(F)F
% Inhibition: -1%
Z score: 0.23

CC(C)OCCCNC(=O)CCC(=O)NCc1ccco1
% Inhibition: 2%
Z score: -0.27

Cc1cc(OCC(=O)Nc2ccnn2C2CCCC2)nnc1C
% Inhibition: -2%
Z score: 0.28

Cc1n[nH]c(=O)nc1Nc1ccc(N2CCCCC2)cc1
% Inhibition: -4%
Z score: 0.5

CN(CCC(C)(C)O)C(=O)c1cc(F)cc(Cl)c1
% Inhibition: -7%
Z score: 1.18

C[C@H](NS(C)(=O)=O)c1nc(-c2cccnn2)no1
% Inhibition: 1%
Z score: -0.26

CCOc1ncccc1C(=O)N1CC[C@@H]2OCc3cccc(c3)Oc3cccc(c3)CCC(=O)N(C)CC(=O)N[C@@H]2C1
% Inhibition: 11%
Z score: -1.51

Cc1nn(C)c(C)c1C(=O)N[C@H]1CCN(c2ccc3nncn3n2)C1
% Inhibition: 3%
Z score: -0.41

O=C(c1nc2c(s1)CCCC2)N1CCC[C@H](c2nnc3ccccn23)C1
% Inhibition: -5%
Z score: 0.81

CCn1cc(NC(=O)[C@@]2(C)CC2(Cl)Cl)cn1
% Inhibition: -2%
Z score: 0.34

Cc1nc(C(=O)NC2C(C)CCCC2C)c(C)o1 (centres undefined)
% Inhibition: 1%
Z score: -0.22

Cc1ccc(S(=O)(=O)Nc2ccc3c(c2)CCCN3S(=O)(=O)c2cccs2)c(C)c1
% Inhibition: 2%
Z score: -0.22

CN1[C@@H]2CC[C@H]1CN(C(=O)Nc1ccc3c(c1)CCC3)CC2
% Inhibition: 2%
Z score: -0.26

CN1CCO[C@](c2ccccc2)(C(O)(c2ccccc2)c2ccccc2)C1=O
% Inhibition: -3%
Z score: 0.57

O=S(=O)(c1ccc(F)cc1F)N1CCN=C1N1CCCCC1
% Inhibition: -1%
Z score: 0.24

CCCC(CCC)NCc1cnn(C)c1
% Inhibition: -10%
Z score: 1.05

CN(C)c1ccc(-c2cccnc2)nn1
% Inhibition: -3%
Z score: 0.64

O=C(Nc1nnc2ccccn12)C1CCCC1
% Inhibition: -5%
Z score: 0.58

Nc1nnnn1CC(=O)N[C@H]1CC2(CCCCC2)Oc2ccccc21
% Inhibition: -11%
Z score: 2.37

COCCOc1cc2cc(c1)C(=O)NCCNC(=O)N[C@H]1CCN(Cc3cnc(C)n3C)C[C@@H]1OCc1cccc(c1)O2
% Inhibition: -4%
Z score: 0.67

COc1cccc(CNCCCN2CCOCC2)c1OCc1ccc(Cl)cc1Cl
% Inhibition: 30%
Z score: -1.27

CC1CC(c2ccccc2)CN1C(=O)NC1CCC(=O)NC1C1CCCO1 (centres undefined)
% Inhibition: 28%
Z score: -3.49

CN1C[C@@H]2CC[C@H](CC1=O)N2S(=O)(=O)CC1CCC1
% Inhibition: -7%
Z score: 0.94

Cc1cc(F)ccc1NS(=O)(=O)c1cc(-c2onc(C)c2C)sc1C
% Inhibition: 1%
Z score: -0.08

COc1ccccc1[C@H](CNC(=O)NC1CC1)N1CCCCC1
% Inhibition: -7%
Z score: 0.96

CC(C)c1nc(CC(=O)N2CCOCC2)cs1
% Inhibition: -8%
Z score: 0.8

O=C(NCC1COc2ccccc2O1)C1CCc2[nH]cnc2C1 (centres undefined)
% Inhibition: -18%
Z score: 3.02

Cc1cc2nc3n(c(=O)c2n1CC(=O)Nc1cc(F)ccc1F)CCCCC3
% Inhibition: -17%
Z score: 1.92

O=C(CCn1cc(Cl)cn1)N1CCOC[C@@H](O)C1
% Inhibition: -16%
Z score: 1.49

CC(C)(C(=O)N1CCC([C@@H]2CCCO2)CC1)c1c[nH]cn1
% Inhibition: 26%
Z score: -3

Cc1ccc2[nH]c(C(=O)N3CCC(Oc4cccc(C#N)c4)CC3)c(C)c2c1
% Inhibition: -4%
Z score: 0.66
